# Assay results taken from the supplement of paper PMC3334620.
# The full ranking holds about 33,000 sequences; the median of “E-score (-0.5 to 0.5)” is about -0.016, and the highest 2% start at about 0.31. The list shows a part of the results.
# Target: Cst6 (UniProt P40535)
# Test: PBM E-score (8-mer binding enrichment) (E-score (-0.5 to 0.5)); higher = stronger / more preferred TF binding; most listed sequences are background and not binding sites
# Conditions: protein concentration: 200 nM; construct: GST-DNA-binding domain
# Experimental: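 Universal 'all 10-mer' protein binding microarrays (Agilent AMADID 015681) probed with GST-tagged S. cerevisiae TFs (full-length or DBD) made by in vitro transcription/translation (PURExpress), about 100-200 nM. Bound TF was detected with fluorescent anti-GST. Each ungapped 8-mer (which stands for itself and its reverse complement) is scored by the PBM enrichment score (E-score), a modified Wilcoxon-Mann-Whitney statistic from -0.5 to +0.5, computed with the Universal PBM Analysis Suite. Scale: above 0.35 generally sequence-specific binding.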
row,Sequence,PBM E-score
1,ACCTACTC,-0.00719
2,AGCCGGCC,-0.142
3,AAGTCAGA,-0.133
4,CACGGTCA,0.171
5,AAGCTTGA,-0.0535
6,ATAAGCTA,0.211
7,CGCCAGTC,-0.14
8,ACTTGCAG,-0.132
9,CTTAACCC,-0.27
10,TTGAAAAA,0.218
11,AAAGTCTT,0.00101
12,ACTCTACT,0.12
13,ACGACGAA,0.0916
14,AGAGAAGA,0.0196
15,CCCCCAGA,-0.391
16,ATTGCGTC,0.34
17,CACCCAAC,-0.135
18,AACTTATG,0.232
19,CGTAATTC,0.309
20,GTATGCCA,-0.296
21,ACTTTCCC,-0.132
22,CTTGTTTA,0.14
23,AACGCGGT,0.0121
24,CAATCTTA,0.0855
25,CCGTGATC,-0.0186

row,Sequence,PBM E-score
1,ACCTTGCA,-0.236
2,ACCAGCGG,-0.0683
3,TCAACGAA,0.114
4,ATGGCCAG,-0.102
5,AGCGAAAA,0.0315
6,AGGTAACT,0.106
7,CCTCAAGA,-0.159
8,AAAGAGAA,0.0831
9,CCCTTTCC,-0.138
10,ACCAACAA,0.197
11,ATTGCGTG,0.154
12,ACGATCCG,-0.108
13,ACCACAAG,-0.233
14,CGGTCCGC,-0.198
15,ATGTCGAG,-0.0235
16,GGTCGAGA,-0.263
17,TTAGCTAA,0.168
18,ACTACAAA,0.256
19,AAGTAATA,0.11
20,CCAAGAAC,-0.157
21,AGTTCAAT,-0.11
22,ACCTAATG,-0.118
23,CCGCCTAC,-0.0654
24,GCACACAC,0.039
25,GTCCACAA,0.0357

row,Sequence,PBM E-score
1,CCCAAAAA,-0.0343
2,TAATCGTA,0.235
3,TCCTGAGA,0.0111
4,AGAGGATC,-0.18
5,GATTCTGA,0.0866
6,ATCTTTAC,0.162
7,CAATACTG,-0.115
8,CTTGCAGC,-0.0494
9,AACGTAAG,0.306
10,GCGTACAC,-0.178
11,ATCGGATG,0.0223
12,ATTAGATC,0.16
13,GCAAGCTA,-0.115
14,CACCTACA,-0.206
15,AACTGACT,-0.0179
16,AGACAGGA,0.0765
17,CCGGGGGA,-0.333
18,GAGGCATC,0.102
19,ATCGCTGC,-0.132
20,ATGCAATG,0.194
21,GAAACGCC,0.246
22,AGTTTCGG,0.0436
23,TGCAGCAA,0.0106
24,GGGGTTTA,-0.252
25,ACCCTACT,-0.161

row,Sequence,PBM E-score
1,AAGGGGCA,-0.178
2,ATTATGGA,0.0464
3,AAATGGGT,0.0302
4,CTGATCTC,-0.0958
5,CAAATCTC,-0.0483
6,GCACAACC,-0.241
7,CAGTTGCC,0.0723
8,CAAGCTGA,0.0826
9,CTTCCTTA,-0.0676
10,CCCTGTGC,-0.144
11,GATGTTGA,0.225
12,CCAGTGAG,-0.0869
13,CCTGTCCA,-0.305
14,AATCGTCC,-0.00977
15,CTAACATC,0.0755
16,ACAAGGCT,-0.0734
17,CCACCGCG,-0.0547
18,TACGTCGA,0.238
19,TACTCCGA,-0.22
20,CTGGGATC,-0.123
21,GCCCGGAA,-0.243
22,CAGAATAG,0.106
23,ACGTCCTG,-0.115
24,CATTATAC,0.15
25,CTCATTCA,0.0767

row,Sequence,PBM E-score
1,GCGTTGGA,-0.0905
2,ATGAGCCC,-0.283
3,CCAGCCTC,-0.338
4,CTTAAGAA,0.0736
5,AAACGGAC,-0.106
6,GAGCCTGC,-0.173
7,TAAAGCCA,0.0736
8,CCAAGTCC,-0.349
9,TCATGTCA,0.382
10,AAGGCGCC,0.244
11,AATTGGGT,0.268
12,GAGAGATC,-0.135
13,TCGATGCA,-0.0904
14,AAATCGAC,0.135
15,AAACGCTC,-0.105
16,CGTAGCAC,0.059
17,ATCGCCCA,-0.292
18,CTGACGTC,0.482
19,AGACAAGC,0.0557
20,CTTCGGAC,-0.005
21,TGATACCA,0.079
22,GCGGCGAC,0.0991
23,ACAACCAC,0.133
24,CCACCGGA,-0.00856
25,ATCATTGC,0.188

row,Sequence,PBM E-score
1,ATGGATTA,-0.0119
2,ACATGGCT,-0.193
3,CCTCATAA,0.199
4,AGTTGGTG,-0.0092
5,ACTCTGGG,-0.187
6,AGCGCTCG,-0.227
7,TCTGACCA,0.126
8,CCTCGCAC,0.0202
9,CCCTCGGA,-0.138
10,CAGGCCGA,-0.198
11,ACAACGAT,0.0199
12,CTTCTCAC,0.0255
13,CGACCCAG,-0.191
14,AGCCGGCG,-0.0824
15,ACACGACA,0.103
16,TCCGTAAA,-0.0237
17,GTAGAGCA,-0.0326
18,CGCTGCCA,-0.161
19,GTCTTTGA,0.0187
20,CCACGATC,0.178
21,ACGTTTAT,0.249
22,AGCAGACG,-0.079
23,TAGGTACA,-0.137
24,CAACATCA,0.305
25,CCTGCGGA,-0.0778

row,Sequence,PBM E-score
1,ACCCCCCC,-0.357
2,ACCCCGGC,-0.247
3,CTCAAGTA,-0.112
4,AGGCCAGC,-0.148
5,GATAACGC,0.0356
6,CAGATACA,0.181
7,CGATAACG,-0.00108
8,ACCAAAAT,0.157
9,CATGCATC,0.0691
10,CCCCTGCC,-0.274
11,AACAGGGT,-0.319
12,TCACATGA,0.0859
13,GAATACGA,0.104
14,GGGGACAA,-0.107
15,AACTACTG,-0.0481
16,CACGAGTA,0.161
17,ATGGATAG,-0.201
18,AGTTGCGC,-0.0836
19,ATAGACAA,0.15
20,GGGGGTAA,-0.032
21,AAGTTAGT,0.0846
22,ACAGGGTA,-0.141
